PMC4336329 (PLoS ONE, 2015)
Screen size: about 310,000 compounds; about 2,200 (0.71%) showed an effect of 50% or more. The effect is printed as a negative number. This is one part of the list. Where a SMILES comes first, the peptide text is derived from it. The star is where a group is joined. Boc = CC(C)(C)OC(=O)*; Bn = c1ccc(C*)cc1

biological target: human ether-à-go-go-related gene (hERG) potassium channel (human, UniProt Q12809); test: primary screen, population patch clamp on CHO cells stably expressing hERG
Sequence (Q12809 whole entry, looked up): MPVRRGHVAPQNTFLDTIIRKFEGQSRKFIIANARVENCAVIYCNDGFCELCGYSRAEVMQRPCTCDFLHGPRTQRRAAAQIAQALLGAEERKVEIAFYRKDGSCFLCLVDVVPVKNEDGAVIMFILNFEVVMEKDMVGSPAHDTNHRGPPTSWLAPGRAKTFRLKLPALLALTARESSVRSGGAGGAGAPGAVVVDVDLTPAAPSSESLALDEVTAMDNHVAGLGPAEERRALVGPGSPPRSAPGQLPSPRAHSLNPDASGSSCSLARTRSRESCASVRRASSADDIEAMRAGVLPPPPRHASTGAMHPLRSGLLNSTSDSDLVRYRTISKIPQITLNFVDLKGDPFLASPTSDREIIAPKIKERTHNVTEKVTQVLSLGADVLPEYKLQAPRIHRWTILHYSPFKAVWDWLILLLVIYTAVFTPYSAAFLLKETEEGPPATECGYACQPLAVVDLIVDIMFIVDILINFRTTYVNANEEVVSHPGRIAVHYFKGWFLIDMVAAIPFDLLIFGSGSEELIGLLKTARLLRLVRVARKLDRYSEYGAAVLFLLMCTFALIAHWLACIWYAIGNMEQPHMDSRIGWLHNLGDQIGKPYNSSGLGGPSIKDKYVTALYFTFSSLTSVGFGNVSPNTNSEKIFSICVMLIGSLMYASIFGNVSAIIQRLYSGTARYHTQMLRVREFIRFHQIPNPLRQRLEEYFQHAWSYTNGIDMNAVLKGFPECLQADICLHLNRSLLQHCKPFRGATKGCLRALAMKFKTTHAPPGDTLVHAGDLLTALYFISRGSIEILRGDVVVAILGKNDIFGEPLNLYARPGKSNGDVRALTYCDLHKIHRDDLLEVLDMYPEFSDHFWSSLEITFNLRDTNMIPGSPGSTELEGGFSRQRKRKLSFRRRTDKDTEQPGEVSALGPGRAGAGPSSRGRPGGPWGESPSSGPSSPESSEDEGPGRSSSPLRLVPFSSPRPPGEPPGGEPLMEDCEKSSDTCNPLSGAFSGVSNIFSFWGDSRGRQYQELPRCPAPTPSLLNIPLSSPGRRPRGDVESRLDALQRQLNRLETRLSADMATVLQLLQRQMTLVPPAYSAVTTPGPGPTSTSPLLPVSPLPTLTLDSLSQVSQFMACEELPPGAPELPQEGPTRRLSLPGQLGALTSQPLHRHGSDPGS

Compared with `Cc1cc(=O)oc(C)c1C(=O)Nc1ccccc1F`, `COCCCNC(=O)c1cc(Sc2ccc(F)cc2)nc2ccccc12` is lower in “hERG current change (%, negative = inhibition) at 1uM” value: 7.03% for the first, 4.18% for the second.

First: CCOc1ccc(OCC)c(NS(=O)(=O)c2ccc3c(c2)CCN3C(=O)C2CCC2)c1
Second: CC(=O)N1c2ccc(S(=O)(=O)N3CCC(C(=O)N4CCN(c5ccccc5)CC4)CC3)cc2CC1C (stereo not drawn)
The “hERG current change (%, negative = inhibition) at 1uM” value of the first is higher: 0.173% for the first, -11.4% for the second.

First: COC(=O)CSc1nc(N2CCOCC2)c2c(c1C#N)CC(C)(C)N(C)C2
Second: O=C(Cn1nc(C(F)(F)F)c2c1CCCC2)NCCN1CCOCC1
The “hERG current change (%, negative = inhibition) at 1uM” value of the first is higher: 8.17% for the first, 2.39% for the second.

Going from `COc1ccc(OC)c(N(CC(=O)NCCc2ccc(OC)c(OC)c2)S(=O)(=O)c2ccccc2)c1` to `COc1cc2cnc(-c3ccccc3)c(-c3cc(OC)c(OC)c(OC)c3)c2cc1OC`, the “hERG current change (%, negative = inhibition) at 1uM” value rises from 4.57% to 14.7%.

Compared with `O=C(c1cccc(N2C(=O)C3CC=CCC3C2=O)c1)N1CCCCCC1` (stereo not drawn), `CC(C)(C)N(Cc1ccccc1)C(=O)CN1C(=O)NC2(CCCCCC2)C1=O` is higher in “hERG current change (%, negative = inhibition) at 1uM” value: -0.233% for the first, 9.29% for the second.

First: COc1ccc(NC(=O)CN2CCN(CC(=O)Nc3ccc(OC)cc3)CC2)cc1
Second: CC(=O)Nc1cccc(NC(=O)C2CCCN2C(=O)Nc2ccc(C)cc2)c1 (stereo not drawn)
The “hERG current change (%, negative = inhibition) at 1uM” value of the first is lower: -85.6% for the first, 14.8% for the second.

Compared with `Cc1nnsc1C(=O)Nc1cccc(Cl)c1Cl`, `O=C(NCc1cccnc1)c1sc2ccccc2c1Cl` is lower in “hERG current change (%, negative = inhibition) at 1uM” value: -1.01% for the first, -5.89% for the second.

First: Cc1ccc(-n2cc[nH]c2=S)cc1C
Second: COc1ccccc1-c1cc2nc(C)cc(C)n2n1
The “hERG current change (%, negative = inhibition) at 1uM” value of the first is higher: 17.6% for the first, 12.1% for the second.

Compared with `O=C(N/C(=C/C=C\c1ccccc1)C(=O)N1CCOCC1)c1ccc(Br)cc1`, `O=C(O)c1ccc(C(=O)C(=O)c2ccccc2)cc1` is higher in “hERG current change (%, negative = inhibition) at 1uM” value: -19.1% for the first, -1.04% for the second.

First: Cc1onc(-c2ccccc2Cl)c1C(=O)N1CCCCC1C(=O)O (stereo not drawn)
Second: FC(F)(F)c1nc(N2CCCC2)ncc1-c1nnnn1-c1ccccc1
The “hERG current change (%, negative = inhibition) at 1uM” value of the first is higher: 14.6% for the first, 12.8% for the second.

First: COc1ccc(-c2[nH]ncc2CNC(C)Cc2cccc(C)n2)cc1F (stereo not drawn)
Second: COc1cc(Cl)ccc1OCc1cc(C(=O)NCc2cc(C(C)C)no2)no1
The “hERG current change (%, negative = inhibition) at 1uM” value of the first is higher: 15% for the first, 7.81% for the second.

Going from `COc1cc(NS(C)(=O)=O)ccc1Nc1c2ccccc2nc2ccccc12.Cl` to `COc1ccccc1NS(=O)(=O)c1cc(C(=O)NCC(c2ccco2)N(C)C)ccc1C` (stereo not drawn), the “hERG current change (%, negative = inhibition) at 1uM” value rises from -59.7% to 18.1%.

Compared with `O=C(O)c1cc(-c2cccc([N+](=O)[O-])c2)nc2ccccc12`, `Nc1nn2cc(-c3ccccc3)nc2c2ccccc12` is lower in “hERG current change (%, negative = inhibition) at 1uM” value: 0.161% for the first, -4.86% for the second.

Going from `Clc1ccc(CSc2ncnc3nc[nH]c23)cc1` to `CN(CCc1ccccn1)C(=O)Nc1ccc(Cl)cc1`, the “hERG current change (%, negative = inhibition) at 1uM” value rises from 9.25% to 10.3%.

Compared with `CC(=O)NC(CC(=O)O)c1ccccc1` (stereo not drawn), `C/C(CC(=O)Nc1ccccn1)=N\NC(=O)c1cccc(C)c1` is lower in “hERG current change (%, negative = inhibition) at 1uM” value: 12.8% for the first, 6.29% for the second.

First: CC(C(=O)Nc1ccc(C(=O)O)cc1)N1C(=O)c2ccccc2C1=O (stereo not drawn)
Second: O=C(O)c1ccc(/C=N/Nc2nc3ccccc3[nH]2)cc1
The “hERG current change (%, negative = inhibition) at 1uM” value of the first is lower: 1.79% for the first, 5.23% for the second.

Going from `CC(=O)c1c(C)n(Cc2ccccc2Cl)c2ccc(O)cc12` to `O=c1cc(CSc2nc3ccccc3[nH]2)c2ccccc2[nH]1`, the “hERG current change (%, negative = inhibition) at 1uM” value falls from 13.9% to -5.37%.

Compared with `COc1ccc(C)cc1NC(=O)CN(C)S(=O)(=O)c1cnc[nH]1`, `COc1ccc(S(=O)(=O)n2ccnc2C)c(C)c1C` is higher in “hERG current change (%, negative = inhibition) at 1uM” value: -4.88% for the first, 14.6% for the second.

Going from `Cc1cccc(C(=O)N2CCN(c3ccc([N+](=O)[O-])c(NCc4ccco4)c3)CC2)c1` to `Cc1ccccc1C(=O)N1CCN(c2ncnc3c2cnn3-c2ccccc2)CC1`, the “hERG current change (%, negative = inhibition) at 1uM” value rises from 2.94% to 10.2%.

Compared with `C=CCNC(=O)/C(C#N)=C/c1c(N2CC(C)OC(C)C2)nc2ccccn2c1=O` (stereo not drawn), `CCOC(=O)C1C(=O)NC(N2CCN(Cc3ccccc3)CC2)=NC1c1ccco1` (stereo not drawn) is lower in “hERG current change (%, negative = inhibition) at 1uM” value: 14.4% for the first, 5.75% for the second.

Going from `Cn1c(=O)c2c(ncn2CCc2ccccc2)n(C)c1=O` to `Cn1cnc2c1c(=O)n(CC(O)CO)c(=O)n2C` (stereo not drawn), the “hERG current change (%, negative = inhibition) at 1uM” value rises from 15.6% to 20.3%.

First: COc1ccc(-c2ccc(=O)n(Cc3ccc([N+](=O)[O-])cc3)n2)cc1
Second: Cc1ccc(NC(=O)NNC(=O)COc2ccc([N+](=O)[O-])cc2)cc1C
The “hERG current change (%, negative = inhibition) at 1uM” value of the first is lower: -5.51% for the first, 3.75% for the second.

Compared with `C=CCNC(=S)N/N=C/c1ccc(-c2ccc(Br)cc2)o1`, `NC1=NC(=O)/C(=C/c2ccc(-c3ccc(S(N)(=O)=O)cc3)o2)S1` is lower in “hERG current change (%, negative = inhibition) at 1uM” value: 13.3% for the first, 12.5% for the second.

Compared with `CCOc1ccccc1NC(=O)C(OC(=O)c1ccccc1NS(=O)(=O)c1cccs1)c1ccccc1` (stereo not drawn), `CCOC(=O)Cc1csc(NC(=O)COc2ccc(N(C)S(=O)(=O)c3cccs3)cc2)n1` is lower in “hERG current change (%, negative = inhibition) at 1uM” value: 14.6% for the first, -3.03% for the second.

Compared with `COC(=O)c1cc(NC(=O)C2CCCN(S(=O)(=O)c3c(C)n[nH]c3C)C2)cc(C(=O)OC)c1` (stereo not drawn), `CCOC(=O)C1CCCN(C(=O)c2ccc(OC)c([N+](=O)[O-])c2)C1` (stereo not drawn) is lower in “hERG current change (%, negative = inhibition) at 1uM” value: 11.1% for the first, 8.92% for the second.

Going from `N=c1c2c(ncn1CCCO)Oc1c(ccc3ccccc13)C2c1ccccc1` (stereo not drawn) to `O=c1c(-c2ccco2)[n+]([O-])c2ccccc2n1OCc1ccccc1`, the “hERG current change (%, negative = inhibition) at 1uM” value rises from -20.5% to 7.94%.

Compared with `CCOc1ccc(N(CC(=O)NC2CCCC2)C(=O)CCCC(=O)Nc2ccccn2)cc1`, `COc1cccc(NC(=O)C/C(C)=N/NC(=O)C2CCCCC2)c1` is higher in “hERG current change (%, negative = inhibition) at 1uM” value: 3.86% for the first, 5.22% for the second.

Compared with `O=C(Nc1ccccc1)c1cnc2n(c1=O)CCS2`, `Cc1c(C(=O)Nc2cccc([N+](=O)[O-])c2)sc2ncn(CC(=O)N3CCOCC3)c(=O)c12` is higher in “hERG current change (%, negative = inhibition) at 1uM” value: 3.96% for the first, 14.1% for the second.

First: O=C(NCc1ccco1)/C(=C\c1cccnc1)NC(=O)c1ccccc1F
Second: O=[N+]([O-])c1ccccc1Nc1cccnc1
The “hERG current change (%, negative = inhibition) at 1uM” value of the first is lower: -37% for the first, 11.2% for the second.

Going from `CC(C)CC(NC(=O)C(CC(C)C)NC(=O)C(Cc1ccc(OCc2ccccc2)cc1)NC(=O)OC(C)(C)C)C(N)=O` (stereo not drawn) (Boc-Tyr(Bn)-Leu-Leu-NH2; configuration not given here) to `CC(C)C[C@H](NC(=O)c1nc[nH]c1C(=O)NCCCCCNC(=O)OC(C)(C)C)C(=O)OCc1ccccc1`, the “hERG current change (%, negative = inhibition) at 1uM” value falls from 14.7% to 8.46%.

First: COC(=O)C(NC(=O)c1ccco1)(Nc1ccc(Br)cn1)C(F)(F)F (stereo not drawn)
Second: O=C(NC1CCCN(c2ccc(C(F)(F)F)cn2)C1)c1ccnc(Cl)c1 (stereo not drawn)
The “hERG current change (%, negative = inhibition) at 1uM” value of the first is higher: 5.29% for the first, -9.21% for the second.

First: Cc1csc(NC(=O)C2C3C=CC(C3)C2C(=O)O)n1 (stereo not drawn)
Second: CC(=O)NCc1ccc(C(=O)CCl)s1
The “hERG current change (%, negative = inhibition) at 1uM” value of the first is lower: 3.5% for the first, 7.93% for the second.

Compared with `CCCCOc1c(Br)cc(CNCCCN2CCOCC2)cc1OC.Cl`, `CN(Cc1ccccc1)C(=O)c1c[nH]c2ccc(S(=O)(=O)N3CCOCC3)cc2c1=O` is lower in “hERG current change (%, negative = inhibition) at 1uM” value: 6.48% for the first, 4.14% for the second.

First: CCn1c(SCc2nc(-c3ccccc3)no2)nnc1-c1ccco1
Second: CCn1c(CSCc2ccc(F)cc2)nnc1SCC(=O)N1CCN(c2ccccc2)CC1
The “hERG current change (%, negative = inhibition) at 1uM” value of the first is lower: -24.7% for the first, -14.8% for the second.

Going from `Cc1ccc2[nH]c(CNC(=O)C3CCCCC3)cc2c1` to `N/C(Cc1ccc([N+](=O)[O-])cc1)=N\OC(=O)CC1CCCCC1`, the “hERG current change (%, negative = inhibition) at 1uM” value falls from 13.6% to 3.58%.

Compared with `Cc1ccc(C2=NOC(C)(c3nnc(-c4ccc(F)cc4)o3)C2)cc1` (stereo not drawn), `CC(=O)c1cc2c(cc1NC(=O)Cn1nc(-c3ccc(F)cc3)ccc1=O)OCO2` is lower in “hERG current change (%, negative = inhibition) at 1uM” value: 3.83% for the first, -0.614% for the second.

Going from `CC(C)(C)[C@H]1C=C(C(=O)N2CCN(Cc3ccc4c(c3)OCO4)CC2)O[C@@H](OCc2ccc(CO)cc2)C1` to `O=C(O)C(=O)O.OC(COC(c1ccc(F)cc1)c1ccc(F)cc1)CN1CCCC(C(F)(F)F)C1` (stereo not drawn), the “hERG current change (%, negative = inhibition) at 1uM” value rises from -2.12% to 14%.

Going from `O=C(Nc1cccc(-n2cccn2)c1)C1CCCN(Cc2ccccc2F)C1` (stereo not drawn) to `CCOc1ccc(S(=O)(=O)n2ccnc2)c2ccccc12`, the “hERG current change (%, negative = inhibition) at 1uM” value rises from 5.8% to 15%.

Going from `O=C(NCC1CC1)c1cc([N+](=O)[O-])cc([N+](=O)[O-])c1` to `CC1CCc2sc(C(=O)N3CCN(c4ncccn4)CC3)cc2C1` (stereo not drawn), the “hERG current change (%, negative = inhibition) at 1uM” value falls from 12.6% to 3.81%.

Compared with `CC(NC(=O)c1ccc(F)cc1)C(c1cccs1)N1CCN(C)CC1` (stereo not drawn), `CC(C)CC1NC(=O)c2ccccc2-n2c1nc1ccc(F)cc1c2=O` (stereo not drawn) is higher in “hERG current change (%, negative = inhibition) at 1uM” value: 7.38% for the first, 14.1% for the second.

First: Cc1cc(C)n2nc(C(=O)OCCOc3ccc(Br)cc3)nc2n1
Second: COc1cccc2sc(NNC(=O)c3nc4ccccc4s3)nc12
The “hERG current change (%, negative = inhibition) at 1uM” value of the first is lower: -21.3% for the first, 11.2% for the second.

Compared with `CC(=O)O[C@H]1C[C@@]2(O)[C@@H](OC(=O)c3ccccc3)C3[C@@](C)([C@@H](O)C[C@H]4OC[C@@]34OC(C)=O)[C@@H](O)[C@H](OC(C)=O)C(=C1C)C2(C)C` (stereo partly drawn), `Cc1cccc(CC2S/C(=N/c3ccccn3)NC2=O)c1` (stereo not drawn) is higher in “hERG current change (%, negative = inhibition) at 1uM” value: 6.25% for the first, 13.5% for the second.
